Laboratory results taken from the supplement of paper PMC12217912.
The list shows a part of the results. The full chains were built here from the parent and the listed change. Inactive controls read about 0.05.

B1: TEV protease; numbered along this chain (parent)
chain: MGESLFKGPRDYNPISSSICHLTNESDGHTTSLYGIGFGPFIITNKHLFRRNNGTLVVQSLHGVFKVKDTTTLQQHLVDGRDMIIIRMPKDFPPFPQKLKFREPQREERICLVTTNFQTKSMSSMVSDTSCTFPSGDGIFWKHWIQTKDGQCGSPLVSTRDGFIVGIHSASNFTNTNNYFTSVPKNFMELLTNQEAQQWVSGWRLNADSVLWGGHKVFMVKPEEPFQPVKEATQL

Variants of: B1
Assay: raw area under fraction-flipped curve 0-4 h after induction (AUC4h, not background-subtracted), DNA-recorder readout of cleavage of the substrate (dimensionless); higher = more cleavage of the substrate by the protease variant
Settings: temperature: 34 °C; time window: 0-4 h after rhamnose induction
Experimental: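 In vivo DNA recorder in E. coli TOP10(DE3) ΔrhaA at 34 °C. Each TEVp single-site mutant (parent TEVp 0) is paired with a single-site variant of the 7-mer TEVs (canonical ENLYFQ|S). The substrate sits between flexible linkers in a Bxb1-sfGFP-TEVs-SsrA fusion, so cleavage stabilises Bxb1 and speeds flipping of a recombination array, read by NGS. The value is the raw area under the fraction-flipped curve over 0-4 h after rhamnose induction (AUC4h), with ≥20 reads per time point. It is not background-subtracted; inactive controls average about 0.047.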
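Also: Bxb1 expression induced with 0.2% (w/v) L-rhamnose at OD600 near 0.5, cultures sampled hourly, flipped fraction per protease–substrate barcode pair counted by paired-end Illumina sequencing.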

| Variant | area with substrate EALYFQS | area with substrate ECLYFQS | area with substrate EDLYFQS | area with substrate EFLYFQS | area with substrate EHLYFQS | area with substrate EILYFQS | area with substrate EKLYFQS | area with substrate ELLYFQS | area with substrate EPLYFQS | area with substrate EQLYFQS | area with substrate ERLYFQS | area with substrate ESLYFQS | area with substrate ETLYFQS | area with substrate EWLYFQS | area with substrate EELYFQS | area with substrate EGLYFQS | area with substrate EMLYFQS | area with substrate EVLYFQS | area with substrate EYLYFQS |
| --- | --- | --- | --- | --- | --- | --- | --- | --- | --- | --- | --- | --- | --- | --- | --- | --- | --- | --- | --- |
| G39D | 0.0265 | 0.0431 | 0.0475 | 0.0593 | 0.0458 | 0.0464 | 0.0352 | 0.0752 | 0.0453 | 0.0509 | 0.0527 | 0.0471 | 0.0444 | 0.0712 | – | – | – | – | – |
| G39V | 0.0449 | 0.0464 | 0.0359 | 0.0382 | 0.0466 | 0.0413 | 0.0476 | – | 0.0312 | 0.0482 | 0.0319 | 0.0448 | – | 0.0441 | 0.0404 | 0.0395 | 0.0455 | 0.0413 | 0.0418 |
| G39K | 0.038 | 0.0433 | 0.0385 | – | 0.0983 | 0.0445 | – | 0.0325 | – | – | – | 0.0472 | 0.0402 | 0.061 | 0.0414 | 0.0303 | 0.0506 | 0.0477 | 0.0404 |
| G39S | 0.0373 | 0.0473 | 0.0544 | – | 0.0468 | 0.0387 | 0.0616 | 0.0285 | 0.0447 | 0.0558 | 0.0517 | 0.0434 | 0.0203 | 0.048 | 0.042 | 0.0503 | 0.0528 | 0.0364 | 0.0378 |
| I36C | 0.0999 | 0.102 | 0.117 | – | – | 0.0609 | 0.0951 | 0.0937 | 0.133 | 0.105 | 0.106 | 0.117 | – | 0.0827 | – | 0.108 | 0.111 | – | 0.118 |
| I36N | 0.0711 | 0.0848 | 0.0852 | – | 0.0593 | 0.0581 | 0.0814 | 0.0661 | 0.0882 | 0.078 | 0.0761 | 0.0589 | 0.063 | 0.0566 | 0.084 | 0.0765 | 0.0772 | 0.0736 | 0.0676 |
| F41N | 0.105 | 0.0792 | 0.096 | – | 0.099 | 0.0832 | – | – | 0.108 | 0.11 | 0.0949 | 0.0933 | – | – | 0.0827 | 0.0909 | 0.0997 | 0.0901 | 0.0917 |
| G37R | 0.0738 | 0.0694 | 0.0784 | – | 0.0736 | 0.0672 | 0.0758 | 0.073 | – | 0.0807 | – | 0.0652 | 0.0896 | – | 0.0818 | 0.0902 | 0.0805 | 0.0732 | 0.0692 |
| G37L | 0.0714 | 0.0758 | 0.0978 | – | – | 0.0756 | 0.0646 | 0.0676 | 0.107 | 0.107 | 0.0096 | 0.0798 | – | – | 0.0954 | – | – | 0.0456 | 0.0561 |
| T31G | 0.0736 | 0.0965 | 0.0762 | 0.0776 | 0.0831 | 0.0778 | 0.0799 | 0.0724 | 0.0808 | 0.0773 | 0.0827 | 0.0809 | 0.0915 | 0.0767 | 0.0931 | 0.0763 | 0.086 | 0.0617 | – |
| T31C | 0.129 | 0.168 | 0.158 | – | 0.119 | 0.1 | 0.124 | 0.106 | 0.116 | 0.161 | 0.107 | 0.122 | – | 0.11 | – | 0.117 | 0.122 | 0.108 | 0.145 |
| T31R | 0.0788 | 0.0649 | – | 0.0661 | 0.0822 | 0.0662 | – | 0.0558 | 0.0809 | 0.0626 | 0.0573 | 0.0667 | 0.0698 | – | 0.0782 | – | – | – | 0.0854 |
| L33Q | 0.0852 | 0.0702 | 0.132 | – | – | – | 0.0736 | 0.0698 | 0.0905 | 0.0883 | – | 0.0897 | 0.108 | 0.0912 | 0.0541 | – | 0.0612 | 0.0779 | – |
| L33V | 0.105 | 0.078 | – | 0.103 | 0.0892 | – | 0.0638 | 0.0984 | 0.0927 | 0.119 | – | 0.0857 | 0.107 | – | 0.102 | 0.116 | 0.115 | – | 0.152 |
| L33F | 0.0565 | 0.0679 | – | – | 0.0536 | 0.0639 | 0.0494 | 0.0617 | 0.0632 | 0.0646 | 0.0383 | 0.0608 | 0.0608 | 0.059 | 0.053 | 0.0669 | 0.0698 | 0.0544 | – |
| S32N | 0.0922 | – | 0.0858 | – | – | 0.0321 | 0.0807 | 0.0949 | 0.104 | 0.0771 | 0.0781 | 0.0779 | – | 0.0952 | 0.106 | – | 0.0982 | 0.0784 | – |
| P40A | 0.117 | – | 0.131 | – | 0.117 | – | 0.108 | 0.11 | 0.107 | 0.139 | 0.116 | 0.116 | 0.123 | – | 0.139 | 0.0946 | – | 0.114 | – |
| G28M | 0.114 | 0.0911 | 0.139 | – | 0.0969 | 0.0454 | – | – | – | – | 0.103 | 0.0862 | – | 0.086 | – | 0.0965 | – | 0.0927 | – |
| G28S | 0.082 | 0.0918 | 0.0924 | – | 0.087 | 0.0842 | 0.0976 | 0.0705 | – | 0.13 | 0.0956 | 0.082 | – | 0.0405 | – | – | 0.106 | 0.0823 | 0.0839 |
| G28H | 0.121 | 0.0912 | 0.114 | – | 0.1 | 0.102 | 0.106 | 0.0681 | 0.111 | – | 0.0921 | 0.0886 | 0.0982 | 0.0891 | 0.108 | – | 0.113 | 0.0853 | 0.0958 |
| Y34C | 0.103 | 0.0954 | 0.116 | 0.101 | 0.111 | 0.0725 | 0.106 | – | 0.119 | 0.112 | 0.0737 | 0.0795 | 0.117 | 0.117 | – | 0.0786 | 0.103 | 0.0938 | – |
| H29Q | 0.0999 | 0.115 | – | 0.0805 | 0.0917 | 0.101 | – | 0.0895 | 0.103 | 0.13 | – | 0.117 | 0.118 | – | 0.0899 | – | – | 0.112 | – |
| H29W | 0.114 | 0.104 | – | 0.106 | 0.0876 | 0.0978 | 0.144 | 0.0872 | – | 0.112 | 0.11 | 0.118 | 0.104 | 0.0979 | 0.0986 | 0.115 | 0.111 | 0.103 | 0.124 |
| H29Y | 0.136 | 0.113 | – | – | 0.115 | 0.0852 | 0.123 | 0.111 | 0.15 | 0.105 | 0.114 | 0.118 | 0.113 | – | 0.157 | 0.104 | 0.127 | 0.105 | – |
